Among all 52,000 compounds or so, about 1,700 (3.3%) were called active. Rule as the data show it: active = survival mostly below about 52% (no sharp cut-off); inactive = mostly above about 56%. The list shows a part of the results.
system: Wild type; assay: S. aureus survival, RN4220 and DeltatarO strains – OD600, teichoic acid synthesis inhibitors, primary screen (AID 463173); settings: S. aureus RN4220 wild type/DeltatarO growth, OD600, 18 h, active compounds read low, screened at 18.75 µg/mL (by protocol)

Compound	survival
CC(=O)N1c2nc(C(C)C)nn2C2(CCCCC2)[C@@H]2CCCC[C@@H]21	inactive: 84%
CC(C)CN(CCCNC(=O)c1cc(=O)[nH]c2ccc(S(=O)(=O)N3CCCCCC3)cc12)CC(C)C	inactive: 68%
CCNC(=O)c1cc2sccc2n1Cc1ccccc1	inactive: 109%
CCOc1cc(S(=O)(=O)NCc2ccc(OC)cc2)c(OCC)cc1-n1cnnn1	inactive: 107%
CCOc1ccc2oc(=O)cc(CN3CCN(c4cc(C)ccc4C)CC3)c2c1	inactive: 73%
CC(=O)Nc1cccc(NC(=O)CN2C(=O)CCSc3ccccc32)c1	inactive: 90%
O=C(Nc1ccc2oc(-c3ccc(O)c(Br)c3)nc2c1)c1cc2ccccc2o1	inactive: 72%
Cc1cccc(N2CCN(C(=O)c3cccn4c(=O)c5cc(Cl)ccc5nc34)CC2C)c1 (centres undefined)	inactive: 65%
Cc1nc2nc(NC(=O)c3ccccc3F)[nH]n2c(=O)c1Cl	inactive: 92%
O=C(CSc1nnc(-c2cccc(Cl)c2)o1)N1CCc2ccccc21	inactive: 79%
COc1ccc(C2C=C(c3cccc(OC)c3)Nc3c(C(=O)Nc4ccccc4)cnn32)cc1 (centres undefined)	inactive: 65%
CCn1c2c(c(=O)n3ncc(C(=O)Nc4cc(Cl)ccc4C)c13)CN(Cc1ccc(OC)cc1)CC2	inactive: 73%
Cc1ccn2c(Nc3ccc(C(C)C)cc3)c(-c3cccs3)nc2c1	inactive: 53%
COc1cc(OC)c(NC(=O)C2=C(C)C(=O)OC23CCCCCC3)cc1Cl	inactive: 74%
CCC1CN(C(=O)N2CCC(C(=O)N3CCN(c4cccc(C)c4C)CC3)CC2)c2ccccc2O1 (centres undefined)	inactive: 87%
Cc1ccc(Cl)cc1NC(=O)CCC(=O)N1CC(C)Sc2ccccc21 (centres undefined)	inactive: 63%
COc1ccccc1-c1nnc(SCC(=O)Nc2ccccc2F)o1	inactive: 83%
O=C(NCCc1ccc(Cl)cc1)C1CCN(c2ncnc3c2nc2n3CCCCC2)CC1	inactive: 80%
CC(C)(C)Nc1nc(OCC#N)nc(N2CCOCC2)n1	inactive: 130%
COc1ccc(CNC(=O)CN2C3CCCC2CC(=O)NC3)cc1 (centres undefined)	inactive: 105%
Cc1ccc(-n2c(=O)c3c4c(sc3n(CC(=O)c3ccc(Cl)cc3)c2=O)CCC4)cc1C	inactive: 141%
CN(Cc1ccco1)C(=O)c1ccc2c(c1)N(Cc1ccccc1F)C(=O)c1ccccc1S2	inactive: 115%
CC(=O)N1c2ccc(S(=O)(=O)NCC3CCC(C(=O)Nc4ccc(C)cc4)CC3)cc2CC1C (centres undefined)	inactive: 97%

Compound	survival
CCc1ccc(NC(=O)CN2CCCN(Cc3cccc(Cl)c3)S2(=O)=O)cc1	inactive: 73%
COC(=O)c1cc2sc(C)cc2n1CC(=O)Nc1ccc(C)c(C)c1	inactive: 69%
O=C(NC1CCCCC1)/C(=N\O)c1ccccn1	inactive: 103%
CCOc1ccc(NC(=O)c2cc(S(=O)(=O)N3CCCCCC3)cn2C)cc1	inactive: 128%
COc1ccc2c(c1)c1c(c(=O)n(-c3ccc(F)c(Cl)c3)c(=O)n1CC(=O)N1CCCC1)n2C	inactive: 69%
Cc1c2cnn(-c3ccccc3)c(=O)c2c(C)n1CC(=O)NCCc1ccc(Cl)cc1	inactive: 99%
CCOC(=O)c1ccc(N2C(=O)CC(NC(C)(C)C)C2=O)cc1 (centres undefined)	inactive: 103%
Cc1ccc(C2=C(CC(=O)O)C(=O)CC2)cc1	inactive: 96%
CC(=O)N1CCc2c(sc3c2c(=O)n(-c2ccccc2)c(=O)n3CC(=O)Nc2ccccc2)C1	inactive: 77%
COc1cc(CNC(=O)c2ccc3c(c2)N(C)C(=O)C2CCCCN32)cc(OC)c1OC (centres undefined)	inactive: 73%
COc1ccc2c(c1)N(C)/C(=c1/s/c(=C3/C(=O)N(c4ccccc4)N=C3C)n(C)c1=O)S2	inactive: 115%
O=C(O)c1ccc(CNCc2ccc(Cl)cc2)s1	inactive: 88%
Cc1ccccc1NC(=O)Cn1c(SCC(=O)Nc2ccc(F)cc2)nc2ccccc21	inactive: 76%
CCOC(=O)c1ccc(NC(=O)Cn2c(=O)n(-c3ccc(C)cc3)c(=O)c3c2cnn3C)cc1	inactive: 74%
Cc1c(-c2nc(-c3ccc4c(c3)OCO4)no2)nnn1-c1ccc(Br)cc1F	inactive: 75%
Cc1ccc2nc(Nc3cccc(Cl)c3C)c(-n3nc(C)cc3C)nc2c1	inactive: 131%
CC(C)CN(C(=O)c1cccc(S(=O)(=O)N2CCCCC2)c1)C1CCS(=O)(=O)C1 (centres undefined)	inactive: 76%
Cc1ccccc1NC(=S)N1CCC(NC(=O)C(C)(C)C)CC1	inactive: 108%
CC1(C)CC(CC(N)=O)(c2ccccc2)CCO1 (centres undefined)	inactive: 124%
Cc1ccc(CNC(=O)Cc2c(C)c3cc4c(C)coc4cc3oc2=O)cc1	inactive: 92%
CCOC(=O)N1c2ccccc2Sc2ccccc21	inactive: 95%
N#CCOC(=O)c1cc(-c2ccc(C=C(C#N)C#N)o2)ccc1Cl	inactive: 108%
O=C(COc1ccccc1Cl)OCc1cc(=O)n2nc(-c3cccs3)sc2n1	inactive: 87%

Compound	survival
CCOC(=O)c1ccc(N2CCN(c3cccc(OC)c3)CC2)c(NC(=O)Nc2ccc(OCC)cc2)c1	active: -6%
CCOC(=O)c1c(NC(=O)c2nc(SCC)ncc2Cl)sc(C(C)=O)c1C	inactive: 92%
COc1ccc(C(=O)OCc2cc(=O)n3nc(-c4cccs4)sc3n2)cc1	inactive: 75%
CCC(Cn1nnc2ccccc2c1=O)NC(=O)Nc1cccc(C)c1C (centres undefined)	inactive: 91%
Cc1ccc(S(=O)(=O)Cc2ccc(C(=O)N3CCN(c4cccc(C)c4C)CC3)o2)cc1	inactive: 131%
Cc1ccc(NC(=O)C2CCCN(c3nnc(C)c4c(C)n(-c5ccccc5)nc34)C2)c(Cl)c1 (centres undefined)	inactive: 78%
O=[N+]([O-])c1cc(-c2nc(-c3ccccc3)no2)ccc1N1CCCCC1	inactive: 90%
CCC(=O)N1CCc2cc(Br)cc(S(=O)(=O)CCC(=O)N3CCN(c4cccc(C(F)(F)F)c4)CC3)c21	inactive: 93%
CC1=C(C(=O)Nc2ccccc2)C(c2ccncc2)n2nc(SCc3ccccc3Cl)nc2N1 (centres undefined)	inactive: 103%
COc1ccc(S(=O)(=O)Nc2ccccc2C(=O)NCc2ccco2)cc1OC	inactive: 118%
O=C(Cn1c(=O)n(Cc2ccco2)c(=O)c2ccccc21)Nc1ccc(Cl)cc1Cl	inactive: 103%
O=C(Cn1c(=O)ccc2cc(S(=O)(=O)N3CCCC3)ccc21)NCc1ccc(Cl)cc1	inactive: 75%
O=C(c1ccc(Cl)cc1)N1CCC(c2ccncc2)CC1	inactive: 76%
CCN(CC)S(=O)(=O)c1ccc2nc(NC(=O)c3cccnc3)sc2c1	inactive: 66%
COc1cc(-c2noc(-c3ccc(N4CCN(C)CC4)c([N+](=O)[O-])c3)n2)cc(OC)c1OC	inactive: 120%
CC(C)(C)c1ccc(S(=O)(=O)NCc2ccc3c(c2)CCN3C(=O)c2ccccc2)cc1	inactive: 93%
O=C(NCCO)c1ccc2[nH]c3c(c2c1)CCCC3	inactive: 102%
CCOC(=O)c1cc(S(=O)(=O)NCc2ccccc2)[nH]n1	inactive: 136%
CCC(CO)NC(=O)C(=O)Nc1c2c(nn1-c1ccc(F)cc1)CSC2 (centres undefined)	inactive: 87%
CN(C)c1nc(Cl)nc(NCCOc2ccccc2)n1	inactive: 115%
CCOC(=O)c1cnn(Cc2ccccc2)c1N	inactive: 104%
Cc1cc(Nc2ccc(C)c(Cl)c2)n2nc(Cc3ccccc3)nc2n1	inactive: 59%
COc1ccccc1CNS(=O)(=O)c1c(C)nc2scc(C)n2c1=O	inactive: 79%

Compound	survival
CCN(c1ncnc2c1cnn2-c1ccc(C)cc1)C1CCCCC1	inactive: 72%
CCOc1ccc(NC(=O)CSc2nc(-c3ccc(OC)cc3)nc3c2Cc2c(CO)cnc(C)c2O3)cc1	inactive: 87%
COCCn1c(=O)[nH]c2cc(C(=O)NCc3ccccc3Cl)ccc2c1=O	inactive: 94%
CCOc1ccc(NC(=O)c2c(Nc3ccc(OC)cc3OC)sc(C(=O)c3ccc(Cl)cc3)c2N)cc1	inactive: 81%
CCC(C)C(=O)NCc1ccc(C)cc1 (centres undefined)	inactive: 105%
CCOC(=O)c1cccc(NC(=O)c2cc3sccc3n2Cc2ccc(Cl)cc2)c1	inactive: 135%
CCOc1ccc(CCNC(=O)CCc2cn(Cc3ccccc3F)c3ccccc23)cc1OCC	inactive: 95%
CC(=O)N1CCCc2cc(S(=O)(=O)N(C)CC(=O)Nc3cccc(Cl)c3C)ccc21	inactive: 68%
CCc1ccc(S(=O)(=O)NCCc2cn3ccsc3n2)cc1	inactive: 71%
Cn1c(=O)c2cc(S(=O)(=O)NC(Cc3ccccc3)C(=O)Nc3ccc(F)cc3)ccc2n(C)c1=O (centres undefined)	inactive: 66%
COC(=O)c1ccccc1NC(=S)N(Cc1ccco1)Cc1cc2cc(C)ccc2[nH]c1=O	inactive: 133%
Cc1cccc(CNC(=O)c2cnc3c(-c4cccc(C)c4)c(C)nn3c2C)c1	active: -1%
CCCCC(=O)N1c2ccccc2C(C)(c2ccccc2)CC1(C)C (centres undefined)	active: -2%
COc1ccc(OC)c(CCNc2ncnc3onc(-c4ccc(Cl)cc4)c23)c1	inactive: 128%
O=C(OCC(=O)c1cccs1)c1cccc(C(=O)OCC(=O)c2cccs2)n1	inactive: 111%
O=C(c1ccccc1Cl)n1nc(-c2ccco2)nc1NCc1cccs1	inactive: 87%
CCOC(=O)c1ccc(CN(Cc2ccc(F)cc2)S(=O)(=O)c2ccc(F)c(C(=O)Nc3cc(Cl)ccc3OC)c2)cc1	inactive: 71%
Cc1ccc(N2CCN(C(=O)c3c(C)oc4ncn(C)c(=O)c34)CC2)c(C)c1	inactive: 84%
C/C(=N\N=C1/NC(=O)C(CC(=O)O)S1)c1ccc(C)o1 (centres undefined)	inactive: 117%
CCN(CC)c1ccc(NC(=O)COCc2cc(-c3ccc4c(c3)OCO4)on2)c(C)c1	inactive: 81%

— PubChem BioAssay AID463173 (ICCB-Longwood Screening Facility, Harvard Medical School, 2010)
